In PMC12040169 (PLOS Biology, 2025):
The other results are listed elsewhere or left out.

System: T1, C. trachomatis L2/434/Bu expressing GFP (CTL2-GFP)
T1 construct: L2/434/Bu GFP intracellular growth in HeLa cells
Design: species or system HeLa; C. trachomatis total inclusion area by high-content imaging, normalised to DMSO
Conditions: total inclusion area; 28.5 h, 10 µM; inhibitor
Summary of the method: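 Post-fluorescence-read fixation, DNA staining with Hoechst and high-content imaging; GFP inclusion area and number per well, and nuclei counts, used as proxies for bacterial growth and host viability.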

SMILES	% of control remaining
CC(O)c1cccc(NC(=O)CCC(=O)O)c1 (stereo not shown) [CBK264691]	103.619
C=Cn1ncc(CN2CCc3[nH]c4ccc(OCC)cc4c3C2)c1C [CBK282574]	117.304
CN(C)c1ccc2cccc(O)c2n1 [CBK149729]	73.641
O=C(O)CSc1nnc2n(-c3ccccc3)c3ccccc3n12 [CBK268557]	102.316
O=C(NC1CCc2ccccc21)c1cnc(-c2ccc(Cl)cc2)c(-c2ccc(O)cc2)c1 (stereo not shown) [CBK036629]	86.4191
CC1CCCCN1CCNC(=O)c1ccc(Cn2c(=S)[nH]c3ccccc3c2=O)cc1 (stereo not shown) [CBK265674]	67.9158
COc1ccccc1-c1nccnc1OCc1cccc(OC)c1OC [CBK106825]	82.8175
CCOC(=O)C1=C(C)NC(=O)NC1c1ccc(-c2cccc([N+](=O)[O-])c2)o1 (stereo not shown) [CBK072102]	109.17
CCC(CO)Nc1cncc(-c2cccc(O)c2)n1 (stereo not shown) [CBK037777]	68.5095
O=C(Nc1ccc([N+](=O)[O-])cc1)Nc1ccc(N2CCOCC2)c2nonc12 [CBK266885]	83.1827
CC(C)NC(=O)Nc1ccc(C(=O)N(CC#N)C2CC2)cc1 [CBK306120]	62.7392
O=C(c1ccc(O)cc1)c1ccc(C(=O)O)c(C(=O)O)c1 [CBK261075]	106.593
CCc1nn(C)cc1CN1CCOC(c2nc(C(C)(C)C)cs2)C1 (stereo not shown) [CBK304513]	77.2593
CC(Nc1ccc2[nH]c(=O)[nH]c2c1)C(=O)N1CCN(c2ccccc2)CC1 (stereo not shown) [CBK296748]	80.1484
CN(CC1(C)COC1)C(=O)c1cn2cc(Cl)ccc2n1 [CBK281721]	90.2314
COC(=O)[C@@H]1CN(C(=O)C2CCCC2)CCN1C(=O)c1cccs1 [CBK289609]	100.646
CC(Cn1cccn1)NCC(=O)NC1(C#N)CCCCC1 (stereo not shown) [CBK304845]	21.5697
O=C(CSc1ccc2nnc(-c3ccccn3)n2n1)N1CCCCC1 [CBK287621]	96.5552
O=C(O)C1CNC(=O)N1C(=O)OCc1ccccc1 (stereo not shown) [CBK057462]	77.0996
Cc1ncsc1CCN(C)C(=O)Cn1nc(C)c2ccccc2c1=O [CBK306893]	51.1699
CC(C)Cc1nnc(-c2ccccc2Cl)n1CC1CC1 [CBK200097]	110.203
CC(=O)c1ccc(-c2cc(N3CCN(CCN4CCCC4)CC3)ncn2)s1 [CBK091169]	172.074
CC(C)(C)OC(=O)N1CCC(CNS(=O)(=O)c2ccc3c(c2)OCCO3)CC1 [CBK076971]	96.4259
Fc1ccc(COc2cccc(CNCc3ccccn3)c2)cc1 [CBK269987C]	107.741
CC(C)(C)c1ccnc(N[C@H]2CO[C@H]3[C@@H]2OC[C@@H]3NC(=O)NCc2ccccc2)n1 [CBK289522]	104.772
CC1CNCCC1n1nc(-c2cccs2)ccc1=O (stereo not shown) [CBK284221]	72.6187

SMILES	% of control remaining
Cn1c(=O)c2c(ncn2CC(=O)Nc2ccccc2I)n(C)c1=O [CBK133275]	102.725
Cc1nnc(N2C(=O)c3oc4ccc(Cl)cc4c(=O)c3C2c2cccc(OCc3ccccc3)c2)s1 (stereo not shown) [CBK266870]	103.327
O=c1ccc2cc(S(=O)(=O)Nc3ccc4[nH]ccc4c3)ccc2o1 [CBK062503]	92.0909
CC(=O)Nc1cc(NC(C)=O)c(C)c(C(=O)O)c1 [CBK286623]	89.1897
O=C(CCN1C(=O)/C(=C\C=C\c2ccccc2)SC1=S)Nc1ccc(C(=O)O)cc1 [CBK264818]	117.223
CC(=O)Nc1cccc(-n2nnnc2SCCCCCF)c1 [CBK306164]	86.1079
CCn1cc(C2CN(S(=O)(=O)c3cccc(C)c3Cl)CCO2)cn1 (stereo not shown) [CBK304226]	81.0712
Cc1ccc(Oc2ncccc2NC(=O)CN2CCC(NC(=O)c3ccccc3)CC2)c2c1CCC2 [CBK074715]	93.1532
N#Cc1ccnc(SCC(=O)Nc2ccc(CN3CCOCC3)cc2)c1 [CBK306010]	34.2463
O=C1CC2(C(=O)N1Cc1ccccc1)C(=O)N(Cc1csc(-c3ccccc3)n1)c1ccccc12 (stereo not shown) [CBK075673]	97.5151
O=[N+]([O-])c1cccc(-c2cc(NCCc3ccccn3)ncn2)c1 [CBK091087]	120.441
O=S(=O)(Nc1ccc(Cc2ccncc2)cc1)N1CCCC1 [CBK268263]	87.7897
O=S(=O)(Nc1cccc(Cl)c1Cl)c1ccc(Cl)c(Cl)c1 [CBK017446]	94.6088
Cc1cc(NS(=O)(=O)c2ccc(Nc3nc(-c4cccs4)cs3)cc2)no1 [CBK262504]	23.5503
O=C(CSc1nnnn1C1CC1)Nc1ccc(CN2CCOCC2)cc1 [CBK305857]	30.192
FC(F)(F)c1cccc(OCCOc2nccnc2N2CCNCC2)c1 [CBK014518G]	57.0642
C#CCOc1cc(Br)c(/C=C(/C#N)c2ccc([N+](=O)[O-])cc2)cc1OCC [CBK266617]	95.2706
CCOC(=O)c1cnc2cc(C)ccn2c1=O [CBK086650]	98.1707
c1ccc2c(-c3cc(Nc4ccc5[nH]ccc5c4)ncn3)cccc2c1 [CBK037815]	12.2313
O=C(/C=C/c1ccccc1)ONC(=O)c1ccc(Cl)cc1 [CBK263702]	74.8268
Cc1cc2ncc3c(n2n1)CC1CCC3N1Cc1ccc(F)c(F)c1 (stereo not shown) [CBK284378]	80.2295
O=c1[nH]c(-c2cc(Cc3ccccc3Cl)ccc2O)nc2ccccc12 [CBK291220]	103.584
CCc1ccc(NS(=O)(=O)c2cnn(CC)c2)cc1 [CBK270314]	74.1966
Nc1ncc(-c2cccc(F)c2)nc1NCC1CCOCC1 [CBK063860]	73.0572
O=[N+]([O-])c1ccn(C2CC(O)C(CO)O2)c1 (stereo not shown) [CBK201229]	84.3176
COc1cc(-c2cnc3[nH]c(=O)n(Cc4ccco4)c3n2)cc(OC)c1OC [CBK064755]	142.62
